# Measured values from the supplement of paper PMC9446081.
# About 220 (0.56%) of roughly 39,000 compounds showed activity. The list shows a part of the results.
# Tested on: Escherichia coli K-12 BW25113
# Assay: relative growth (OD600 normalised to plate interquartile mean) (fraction); higher = less growth inhibition, active = 0.2 or less
# Conditions: 50 µM; LB; incubation time: overnight (16-24 h)
# 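Further: static incubation at 37 °C against the wild-type strain, values averaged over two biological replicates.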
row,SMILES,relative growth
1,C[C@@H]1CCCCO[C@@H](CN(C)S(=O)(=O)c2cccs2)[C@H](C)CN([C@H](C)CO)C(=O)c2cc(NS(=O)(=O)c3cn(C)cn3)ccc2O1,inactive: 1.01
2,CCCC(=O)N(CCc1c[nH]c2ccccc12)[C@@H]1CC(C(=O)NCCO)=C[C@H](Oc2c(I)cc(CO)cc2OC)[C@H]1O,inactive: 0.985
3,C[C@@H]1CCCCO[C@@H](CN(C)CC2CC2)[C@H](C)CN([C@@H](C)CO)C(=O)c2cc(NC(=O)Nc3ccccc3)ccc2O1,inactive: 1.01
4,C[C@@H]1CCCCO[C@H](CN(C)Cc2ccccc2)[C@@H](C)CN([C@H](C)CO)C(=O)c2cc(NS(=O)(=O)c3ccc(F)cc3)ccc2O1,inactive: 1.01
5,COC(=O)c1c2oc(c1C(=O)OC)C(=O)N[C@H](Cc1ccccc1)Cn1cc(nn1)CNC(=O)[C@@H](Cc1ccccc1)NC(=O)N[C@@H](CO)CC2,inactive: 0.991
6,C[C@H](CO)N1C[C@H](C)[C@H](CN(C)S(=O)(=O)c2ccc3ccccc3c2)OCc2cn(nn2)CCCC1=O,inactive: 0.99
7,COc1cccc(S(=O)(=O)N(C)C[C@@H]2Oc3cc(C#CCN(C)C)ccc3S(=O)(=O)N([C@@H](C)CO)C[C@H]2C)c1,inactive: 1
8,C[C@@H]1CN([C@@H](C)CO)C(=O)c2cccc(NS(=O)(=O)c3ccc(Cl)cc3)c2O[C@@H]1CN(C)C(=O)Nc1cccc2ccccc12,inactive: 1.01
9,C[C@@H]1CN([C@@H](C)CO)S(=O)(=O)c2ccc(C#C[C@@H](C)O)cc2O[C@H]1CN(C)C(=O)Nc1ccccc1,inactive: 1.01
10,COc1ccc(S(=O)(=O)N2C[C@H](O)COC[C@@H]3O[C@@H](CC(=O)N[C@@H]4CCN(Cc5ccccc5)C4)CC[C@H]32)cc1,inactive: 0.978
11,C[C@H]1CN([C@@H](C)CO)C(=O)Cc2cc(NS(=O)(=O)c3ccc(Cl)cc3)ccc2O[C@H]1CN(C)C(=O)Nc1cccc2ccccc12,inactive: 1.02
12,C[C@H]1CN([C@@H](C)CO)C(=O)c2cc(NS(C)(=O)=O)ccc2O[C@@H]1CN(C)Cc1ccc(C(=O)O)cc1,inactive: 0.97
13,C[C@@H]1CN([C@H](C)CO)C(=O)c2cc(NC(=O)CCCN(C)C)ccc2O[C@H]1CN(C)Cc1ccc(Oc2ccccc2)cc1,inactive: 0.974
14,O=C1C[C@H](N2C(=O)CCC2=O)[C@@H]2CO[C@@H]1O2,inactive: 0.954
15,C[C@@H]1CCCCO[C@H](CN(C)C(=O)Nc2cccc3ccccc23)[C@H](C)CN([C@@H](C)CO)C(=O)c2cc(NC(=O)CCCN(C)C)ccc2O1,inactive: 0.982
16,C[C@@H]1CCCCO[C@H](CN(C)S(=O)(=O)c2ccc(Cl)cc2)[C@@H](C)CN([C@H](C)CO)C(=O)c2cc(NS(=O)(=O)c3ccc(Cl)cc3)ccc2O1,inactive: 0.987
17,C[C@@H]1CN([C@@H](C)CO)C(=O)c2cc(NS(=O)(=O)c3ccccc3)ccc2O[C@@H](C)CCCCO[C@@H]1CN(C)C(=O)Nc1ccc(C(F)(F)F)cc1,inactive: 0.98
18,C=C/C=C/[C@@H]1C(=C)CN([C@@H](Cc2ccccc2)C(=O)OC)[C@H]1[C@@H](O)CCn1cc(-c2ccc(C(=O)NO)s2)nn1,inactive: 0.99
19,C[C@@H]1CN([C@@H](C)CO)C(=O)c2cc(NC(=O)C3CC3)ccc2O[C@H]1CN(C)S(=O)(=O)c1cn(C)cn1,inactive: 1.02
20,O=S(=O)(NCCN(C/C=C/c1ccc(F)cc1)C/C=C/c1ccc(F)cc1)c1cccc2cnccc12,inactive: 1.01
21,Cc1cccc(S(=O)(=O)N2C[C@H](O)COC[C@@H]3O[C@H](CC(=O)NCc4ccc5c(c4)OCO5)CC[C@H]32)c1,inactive: 1.01
22,CC(C)NC(=O)N(C)C[C@@H]1Oc2ccc(NC(=O)CCCN(C)C)cc2C(=O)N([C@@H](C)CO)C[C@H]1C,inactive: 1
23,C[C@H](CO)N1C[C@H](C)[C@@H](CN(C)C(=O)NC2CCCCC2)Oc2ccc(NC(=O)Nc3ccc(C(F)(F)F)cc3)cc2C1=O,inactive: 0.998
24,C[C@@H]1CN([C@H](C)CO)C(=O)c2cc(NC(=O)CCCN(C)C)ccc2O[C@@H]1CN(C)Cc1ccncc1,inactive: 0.966
25,C[C@@H]1CCCCO[C@@H](CN(C)S(=O)(=O)c2ccc(Cl)cc2)[C@@H](C)CN([C@@H](C)CO)C(=O)c2cc(NC(=O)C3CCCCC3)ccc2O1,inactive: 1.02
26,C[C@@H]1CN([C@H](C)CO)C(=O)c2cc(NS(=O)(=O)c3cn(C)cn3)ccc2O[C@H]1CN(C)S(=O)(=O)c1cccs1,inactive: 0.98
27,COc1ccc(CN(C)C[C@@H]2OCCCC[C@@H](C)Oc3ccc(NS(=O)(=O)c4ccc(Cl)cc4)cc3C(=O)N([C@@H](C)CO)C[C@@H]2C)cc1,inactive: 0.985
28,Cc1cccn2c(=O)c(-c3nnn[n-]3)cnc12.[K+],inactive: 1.05

row,SMILES,relative growth
1,C[C@H]1CN([C@@H](C)CO)C(=O)c2cc(C#CC3CCCCC3)cnc2O[C@@H]1CN(C)C(=O)Cc1ccccn1,inactive: 0.979
2,C=CC(=O)Nc1ccc([C@@H](CCc2ccc(OC)c(OC)c2)OC(=O)[C@@H]2CCCCN2C(=O)C(=O)C(C)(C)CC)cc1,inactive: 1.04
3,C[C@H](CO)N1C[C@H](C)[C@@H](CN(C)CC2CCCCC2)OCc2ccccc2-c2c(n(C)c3ccccc23)C1=O,inactive: 0.952
4,COc1ccc2c3c([nH]c2c1)[C@H](CO)N(C[C@]13CN(C1)C(=O)Cc1cccnc1)S(=O)(=O)c1ccc(cc1)C,inactive: 0.987
5,Cc1noc(C)c1S(=O)(=O)N(C)C[C@H]1Oc2ccc(NC(=O)CCN3CCOCC3)cc2CC(=O)N([C@@H](C)CO)C[C@H]1C,inactive: 1.01
6,C/N=C1/S[C@@H]2CS(=O)(=O)C[C@@H]2N1C,inactive: 1.02
7,Cc1ccccc1S(=O)(=O)N1C[C@@H](O)COC[C@H]2O[C@@H](CC(=O)N3CCN(C)CC3)CC[C@@H]21,inactive: 0.985
8,COc1ccc(S(=O)(=O)N(C)C[C@@H]2Oc3ccc(NS(C)(=O)=O)cc3C(=O)N([C@@H](C)CO)C[C@@H]2C)cc1,inactive: 1
9,C[C@H]1CN([C@@H](C)CO)C(=O)c2cccc(NC(=O)CCCCCC(=O)Nc3ccccc3N)c2O[C@@H]1CN(C)C(=O)Nc1cccc2ccccc12,inactive: 0.992
10,COc1cccc(-c2ccc3c(c2)O[C@H](CN(C)Cc2cncnc2)[C@@H](C)CN([C@@H](C)CO)S3(=O)=O)c1,inactive: 1.01
11,O=C(C[C@@H]1CC[C@@H]2[C@H](COC[C@@H](O)CN2S(=O)(=O)c2cccc(Cl)c2)O1)N1CCOCC1,inactive: 1.01
12,CC1(C)OC(=O)C2(C(=O)O1)[C@@H](c1ccc(-c3cccc(-c4ccc(C(=O)O)cc4)c3)cc1)CC(=O)C[C@H]2c1ccccc1,inactive: 0.943
13,C[C@H](CO)N1C[C@H](C)[C@@H](CN(C)C(=O)Nc2ccc(N3CCCCC3)cc2)OCc2cnnn2CCCC1=O,inactive: 0.841
14,C[C@H](CO)N1C[C@H](C)[C@H](CN(C)C(=O)c2ccc(N3CCN(C)CC3)cc2)OCc2cn(nn2)CCCC1=O,inactive: 1
15,C[C@H]1CCCCO[C@H](CN(C)Cc2ccc3c(c2)OCO3)[C@@H](C)CN([C@@H](C)CO)C(=O)c2cc(NC(=O)Nc3ccc(F)cc3)ccc2O1,inactive: 0.995
16,COc1ccc(S(=O)(=O)Nc2cccc3c2O[C@H](CN(C)Cc2ccncc2)[C@H](C)CN([C@@H](C)CO)C3=O)cc1,inactive: 1.03
17,C[C@H]1O[C@@H](OC(=O)[C@]23CCC(C)(C)C[C@H]2C2=CC[C@H]4[C@@]5(C)CC[C@H](O[C@@H]6O[C@H](C(=O)O)[C@@H](O)[C@H](O[C@@H]7OC[C@@H](O)[C@H](O)[C@H]7O)[C@H]6O[C@@H]6O[C@H](CO)[C@H](O)[C@H](O)[C@H]6O)[C@@](C)(C=O)[C@@H]5CC[C@@]4(C)[C@]2(C)C[C@H]3O)[C@H](O[C@H]2O[C@@H](CO)[C@@H](O)[C@@H](O)[C@@H]2O)[C@@H](O)[C@H]1O[C@@H]1O[C@H](C)[C@@H](O[C@H]2OC[C@@H](O)[C@@H](O)[C@@H]2O)[C@H](O)[C@@H]1O,inactive: 0.992
18,COc1ccc(COC[C@@H](C)N2C[C@H](C)[C@H](CN(C)S(=O)(=O)c3ccc(Cl)cc3)Oc3ccc(NC(=O)NC(C)C)cc3C2=O)cc1,inactive: 1.02
19,C[C@H](CO)N1C[C@H](C)[C@H](CN(C)C(=O)Nc2cccc3ccccc23)Oc2ccc(NC(=O)Nc3ccc4c(c3)OCO4)cc2C1=O,inactive: 1.01
20,COc1ccc(-c2oc3c(CC=C(C)C)c(OC4OC(CO)C(O)C(O)C4O)cc(O)c3c(=O)c2OC2OC(C)C(O)C(O)C2O)cc1 (stereo not given),inactive: 1.08
21,CN(C)CCCSC(=N)N,inactive: 1.02
22,C[C@@H]1CN([C@@H](C)CO)C(=O)c2cc(NC(=O)Cn3cnnn3)ccc2O[C@H]1CN(C)C(=O)Nc1ccc(F)cc1,inactive: 0.966
23,C[C@@H]1CN([C@@H](C)CO)C(=O)c2cc(NC(=O)CCN3CCOCC3)ccc2O[C@H]1CN(C)S(=O)(=O)c1ccccc1,inactive: 1.01
24,C[C@@H]1CN([C@@H](C)CO)C(=O)c2cc(NC(=O)NC3CCCCC3)ccc2O[C@@H]1CN(C)Cc1ccc(Cl)c(Cl)c1,inactive: 1.01
25,C[C@@H](C(=O)O)n1ncccc1=O,inactive: 1.02
26,CCNC(=O)CC[C@@H](N)C(=O)O,inactive: 1.02
27,C[C@H](CO)N1C[C@H](C)[C@H](CN(C)Cc2ccc(Cl)c(Cl)c2)Oc2ccc(NC(=O)Nc3ccccc3)cc2CC1=O,inactive: 1
